According to the supplement of paper PMC9135407:
Where “and” joins values, the source holds several entries; their conditions need not be identical. Identical values can stand only once. Counter-ions that a name gives are not always drawn. Hit rate of the full screen: of about 5,800 compounds, about 620 (11%) showed activity.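 The calls were made as follows: active = score above a cut-off or among the top three wells of a plate; in these data no inactive exceeds 0.85.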 The list shows a part of the results, in another mix than the full data.

System: primary human hepatic stellate cells (donor 1)
Assay: scaled lipid accumulation score (0 = DMSO-like, 1 = nortriptyline-like); higher = stronger HSC inactivation (lipid re-accumulation), active = hit call of the paper
Conditions: 48 h
Description: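 Primary lipid accumulation screen in primary human hepatic stellate cell myofibroblasts (donor 1, passage 8) in 384-well plates. 100 nL of library compound was pin-transferred into 30 µL medium in duplicate, and cells were treated for 48 h. The 'Scaled' score combines distance from plate baseline, toxicity and reproducibility penalties, and is normalised to nortriptyline (positive) and DMSO (negative) controls on each plate. A hit is defined as scaled >0.85 or among the top 3 wells per plate.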

[1] = library stock concentration: 3.33 mM
[2] = library stock concentration: 10 mM
[3] = library stock concentration: 400 uM
[4] = library stock concentration: 2 mM
[5] = library stock concentration: 80 uM
[6] = library stock concentration: 1 mM

CC(=O)N(CC(C)C(=O)O)c1c(I)cc(I)c(N)c1I (stereo not drawn) [Iocetamic acid]
scaled lipid accumulation score: inactive: ≤ 0

O=C1CCc2cc(OCCCCc3nnnn3C3CCCCC3)ccc2N1 [Cilostazol]
scaled lipid accumulation score: inactive: ≤ 0 | scaled lipid accumulation score [1]: inactive: ≤ 0 | scaled lipid accumulation score (library stock concentration: 5.4 mM): inactive: ≤ 0

CCS(=O)(=O)CCn1c([N+](=O)[O-])cnc1C
scaled lipid accumulation score [2]: inactive: ≤ 0

CCS(=O)(=O)CCn1c([N+](=O)[O-])cnc1C [Tinidazole]
scaled lipid accumulation score: inactive: ≤ 0 | scaled lipid accumulation score [1]: inactive: ≤ 0 | scaled lipid accumulation score (library stock concentration: 8.1 mM): inactive: ≤ 0 | scaled lipid accumulation score [2]: inactive: ≤ -0.001 and inactive: ≤ 0

N#C[C@@H]1C[C@@H]2C[C@@H]2N1C(=O)[C@@H](N)C12CC3CC(CC(O)(C3)C1)C2
scaled lipid accumulation score [2]: inactive: ≤ 0

N#C[C@@H]1C[C@@H]2C[C@@H]2N1C(=O)[C@@H](N)C12CC3CC(CC(O)(C3)C1)C2 [Saxagliptin]
scaled lipid accumulation score [1]: inactive: ≤ 0 | scaled lipid accumulation score [2]: inactive: ≤ 0

CCCCOc1cc(C(=O)NCCN(CC)CC)c2ccccc2n1 [Dibucaine HCl]
scaled lipid accumulation score [1]: inactive: 0.253

CCCCOc1cc(C(=O)NCCN(CC)CC)c2ccccc2n1 [Dibucaine]
scaled lipid accumulation score: inactive: 0.284

CCCCOc1cc(C(=O)NCCN(CC)CC)c2ccccc2n1 [Dibucaine hydrochloride]
scaled lipid accumulation score (library stock concentration: 5.3 mM): inactive: 0.662 | scaled lipid accumulation score [2]: inactive: ≤ 0

O=P(O)(O)C(Cl)(Cl)P(=O)(O)O [Clodronic acid]
scaled lipid accumulation score [2]: inactive: ≤ -0.07

Oc1ccc(-c2nc3cc(O)cc(Br)c3o2)cc1
scaled lipid accumulation score [2]: inactive: 0.005

Cc1coc2c1C(=O)C(=O)c1c-2ccc2c(C)cccc12 [Tanshinone I]
scaled lipid accumulation score [1]: inactive: ≤ 0 | scaled lipid accumulation score [2]: inactive: ≤ 0

CCC(=O)Nc1ccc2ncnc(Nc3cccc(Br)c3)c2c1
scaled lipid accumulation score [1]: inactive: ≤ 0

CCC1=C(C)CN(C(=O)NCCc2ccc(S(=O)(=O)NC(=O)N[C@H]3CC[C@H](C)CC3)cc2)C1=O [Glimepiride]
scaled lipid accumulation score: inactive: 0.026 | scaled lipid accumulation score [1]: inactive: ≤ 0 | scaled lipid accumulation score [2]: inactive: ≤ 0 and inactive: ≤ -0.001

CCC1=C(C)CN(C(=O)NCCc2ccc(S(=O)(=O)NC(=O)N[C@H]3CC[C@H](C)CC3)cc2)C1=O
scaled lipid accumulation score [2]: inactive: ≤ 0

Cc1ccccc1-n1c(Cn2nc(-c3cccc(O)c3)c3c(N)ncnc32)nc2cccc(C)c2c1=O
scaled lipid accumulation score [3]: inactive: 0.047 | scaled lipid accumulation score [4]: inactive: ≤ -0.005 | scaled lipid accumulation score [1]: inactive: ≤ 0 | scaled lipid accumulation score [2]: inactive: ≤ 0 and inactive: ≤ -0.005

COc1cc(Nc2nc3ccccc3nc2NS(=O)(=O)c2ccc(NC(=O)c3ccc(C)c(OC)c3)cc2)cc(OC)c1
scaled lipid accumulation score [1]: inactive: ≤ 0 | scaled lipid accumulation score [2]: inactive: 0.145

COc1cc(Nc2nc3ccccc3nc2NS(=O)(=O)c2ccc(NC(=O)c3ccc(C)c(OC)c3)cc2)cc(OC)c1 [pseudoXL765]
scaled lipid accumulation score [5]: inactive: ≤ -0.009 | scaled lipid accumulation score [3]: inactive: ≤ -0.009 | scaled lipid accumulation score [4]: inactive: ≤ -0.009 | scaled lipid accumulation score [2]: inactive: 0.161

C[C@@]12C[C@@]3(O)O[C@@H](O1)[C@]1(COC(=O)c4ccccc4)[C@H]3C[C@@]12O[C@@H]1O[C@H](CO)[C@@H](O)[C@H](O)[C@H]1O [Paeoniflorin]
scaled lipid accumulation score [1]: inactive: ≤ 0 | scaled lipid accumulation score [2]: inactive: ≤ 0

CCCCC[C@H](O)/C=C/[C@H]1[C@H](O)CC(=O)[C@@H]1C/C=C/CCCC(=O)Oc1ccc(NC(C)=O)cc1 [Prostaglandin E2 p-acetamidophenyl ester]
scaled lipid accumulation score [6]: inactive: ≤ 0

CCCCn1c(=O)c2c(ncn2CC(C)=O)n(CCCC)c1=O [Denbufylline]
scaled lipid accumulation score (library stock concentration: 6.2 mM): inactive: ≤ -0.006

Cn1cc(C2=C(c3ccc(Cl)cc3Cl)C(=O)NC2=O)c2ccccc21
scaled lipid accumulation score [2]: active: 1.03

COc1cc(OC)cc(-c2cc3cnc(N)nc3nc2NC(=O)NC(C)(C)C)c1
scaled lipid accumulation score [2]: inactive: ≤ 0

Cc1c[nH]c(=O)n(CCCN2CCN(c3ccccc3OCC(F)(F)F)CC2)c1=O
scaled lipid accumulation score [2]: inactive: 0.093

Nc1ncnc2c1c(-c1cnc3[nH]ccc3c1)nn2C1CCCC1
scaled lipid accumulation score [1]: inactive: ≤ 0 | scaled lipid accumulation score [2]: inactive: 0.452

CCCCC/C=C\C/C=C\C/C=C\C/C=C\CCCC(=O)O[C@H](COCCCCCCCCCCCCCCCC)COP(=O)([O-])OCC[N+](C)(C)C [Arachidonoyl-PAF]
scaled lipid accumulation score [6]: inactive: ≤ -0.021

COc1ccc2cc([C@@H](C)C(=O)O)ccc2c1 [(R) -Naproxen sodium salt]
scaled lipid accumulation score: inactive: ≤ 0

Nc1nc(=O)c2c([nH]1)NC[C@@H](CNc1ccc(C(=O)N[C@@H](CCC(=O)O)C(=O)O)cc1)N2C=O [Folinic acid calcium salt]
scaled lipid accumulation score: inactive: ≤ 0

CCCCc1oc2ccccc2c1C(=O)c1cc(I)c(OCCN(CC)CC)c(I)c1.Cl [Amiodarone HCl]
scaled lipid accumulation score [2]: active: 1.27

CC(C)NCC(O)COc1cccc2ccccc12 (stereo not drawn) [Propranolol HCl]
scaled lipid accumulation score [1]: inactive: ≤ 0 | scaled lipid accumulation score [2]: inactive: 0.555

CC(C)NCC(O)COc1cccc2ccccc12 (stereo not drawn)
scaled lipid accumulation score [2]: inactive: 0.847

CC(C)NCC(O)COc1cccc2ccccc12 (stereo not drawn) [Propranolol hydrochloride]
scaled lipid accumulation score: inactive: 0.378 | scaled lipid accumulation score [2]: inactive: 0.74

CC(C)NCC(O)COc1cccc2ccccc12 (stereo not drawn) [Propranolol]
scaled lipid accumulation score (library stock concentration: 7.7 mM): inactive: 0.676

Cc1nc(NC(=O)N2CCC[C@H]2C(N)=O)sc1-c1ccnc(C(C)(C)C(F)(F)F)c1
scaled lipid accumulation score [5]: inactive: 0.059 | scaled lipid accumulation score [3]: inactive: ≤ -0.016 | scaled lipid accumulation score [4]: inactive: 0.002 | scaled lipid accumulation score [1]: inactive: ≤ 0 | scaled lipid accumulation score [2]: inactive: ≤ 0 and inactive: ≤ -0.016

CC(C)=CCC[C@](C)(O)C1CC=C(C)CC1 (stereo partly drawn) [Bisabolol]
scaled lipid accumulation score [2]: inactive: 0.049

CC(C)C[C@H](NC(=O)[C@H]1O[C@@H]1C(=O)O)C(=O)NCCCCN=C(N)N
scaled lipid accumulation score [1]: inactive: 0.177 | scaled lipid accumulation score [2]: inactive: ≤ 0 and inactive: ≤ -0.07

O=C(/C=C\n1cnc(-c2cc(C(F)(F)F)cc(C(F)(F)F)c2)n1)NNc1cnccn1
scaled lipid accumulation score [1]: inactive: ≤ -0.009 | scaled lipid accumulation score [2]: inactive: 0.384

CN(C)Cc1ccc(-c2nc3cccc4c3n2CCNC4=O)cc1
scaled lipid accumulation score [1]: inactive: 0.037 | scaled lipid accumulation score [2]: inactive: 0.491

Cc1[nH]c(/C=C2\C(=O)Nc3ccc(S(=O)(=O)N(C)c4cccc(Cl)c4)cc32)c(C)c1C(=O)N1CCN(C)CC1
scaled lipid accumulation score [5]: inactive: 0.129 | scaled lipid accumulation score [3]: inactive: 0.261
